# Test results as given in paper PMC6919601, “Identification of Plasmodium dipeptidyl aminopeptidase allosteric inhibitors by high throughput screening” (PLoS ONE, 2019).
# Out of some 110,000 compounds screened, about 230 (0.21%) showed an effect of 50% or more. The list shows a part of the results.
# Biological target: DPAP1 (Plasmodium falciparum, UniProt Q8IIJ9)
# Assay: primary screen, percent inhibition; read by cleavage of a fluorogenic dipeptide substrate; higher = more effect of the substance
# Set-up: species or system P. falciparum D10 trophozoite lysates; single well
# 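Note: 30 min substrate incubation versus DMSO and 10 µM JCP410 controls.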
# DPAP1, sequence (Q8IIJ9 whole entry, looked up): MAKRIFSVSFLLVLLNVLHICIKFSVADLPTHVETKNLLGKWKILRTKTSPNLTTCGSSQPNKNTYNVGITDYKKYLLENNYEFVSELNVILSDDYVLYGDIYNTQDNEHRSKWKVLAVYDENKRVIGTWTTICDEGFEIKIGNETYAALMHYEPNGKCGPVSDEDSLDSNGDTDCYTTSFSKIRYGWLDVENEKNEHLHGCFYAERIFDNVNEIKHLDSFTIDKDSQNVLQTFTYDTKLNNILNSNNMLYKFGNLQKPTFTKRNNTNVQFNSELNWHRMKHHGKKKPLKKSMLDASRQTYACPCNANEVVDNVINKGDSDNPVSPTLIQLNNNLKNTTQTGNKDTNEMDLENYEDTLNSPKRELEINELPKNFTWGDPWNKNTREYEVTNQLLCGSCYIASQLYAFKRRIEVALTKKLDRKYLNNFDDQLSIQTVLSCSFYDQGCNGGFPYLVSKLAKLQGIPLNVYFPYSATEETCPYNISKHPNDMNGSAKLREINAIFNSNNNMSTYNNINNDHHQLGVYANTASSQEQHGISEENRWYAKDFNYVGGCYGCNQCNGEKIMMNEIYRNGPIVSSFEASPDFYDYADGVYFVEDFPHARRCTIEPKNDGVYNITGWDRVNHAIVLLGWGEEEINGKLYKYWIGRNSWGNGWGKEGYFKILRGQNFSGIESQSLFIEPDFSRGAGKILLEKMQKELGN
row,Structure (SMILES),% Inhibition @ 10 uM
1,COc1ccc(Cn2c(C(=O)O)c(CNCc3ccc(F)cc3)c3ccc(OC)cc32)cc1,-0.677%
2,COCC(=O)NCCc1nc2ccccc2n1Cc1c(F)cccc1Cl,2.83%
3,Cc1ccc(N2C(=O)c3ccccc3C2=O)nc1,0.708%
4,Cc1ccc(N2CC(C(=O)NCCO)CC2=O)cc1 (centres unmarked),-3.23%
5,Cc1cc(N2C(=O)CSC23C(=O)Nc2ccccc23)ccc1Br (centres unmarked),-1.79%
6,C=C(C)Cn1c(SCCCc2ccccc2)nc2c1c(=O)[nH]c(=O)n2C,-2.24%
7,CC(C)C(CO)NC(=O)CC(=O)NC(CO)C(C)C (centres unmarked),-8.09%
8,Cc1noc(C(=O)N2CCOCC2)c1Cl,-0.0115%
9,Cc1nccc2nc(O)c(C(=O)NCc3ccc4c(c3)OCO4)cc12,-0.971%
10,Cc1ccc2c(c1C)N[C@@H](c1ccc(S(=O)(=O)N3CCOCC3)cc1)[C@H]1CC=C[C@@H]21,-0.48%
11,Cc1nc2c(c(C)nn2C)c(C)c1CCC(=O)N1CCC(C)CC1,-4.47%
12,COc1cccc(OC)c1C(=O)N1CCN(C(=O)c2c(OC)cccc2OC)CC1,23.8%
13,Cc1onc(-c2ccccc2)c1C(=O)NC1CC1,-7%
14,CCC(=O)n1nc(-c2cccnc2)nc1NCc1cccs1,0.558%
15,COc1ccc(CN2CCN(C(=O)C3CC(=O)N(C4CCCCCC4)C3)CC2)c(OC)c1OC (centres unmarked),6.32%
16,Cc1ccccc1S(=O)(=O)Cc1ccc(C(=O)NCCN(Cc2ccccc2)C(C)C)o1,5.34%
17,O=C(NC1CCCc2ccccc21)C1CCCN(c2nnc(N3CCCC3=O)s2)C1 (centres unmarked),-6.58%
18,CCOc1ccc(CCNC(N)=O)cc1OCC,4.88%
19,N#Cc1conc1-c1ccc(Cl)cc1Cl,-7.02%
20,CC(=O)c1ccc(NC(=O)c2cnn3c(C(F)(F)F)cc(-c4ccco4)nc23)cc1,-4.62%
21,CC(C)(C)c1ccc(C2C(C#N)=C(N)Oc3ncnc(O)c32)cc1 (centres unmarked),5.18%
22,Cc1cc(NC2CC2)n2cnnc2n1,-2.57%
23,C=CCn1c(CCCNC(=O)COc2ccccc2)nc2ccccc21,7.85%
24,Cc1sc(C)c(-c2cccs2)c1-c1cccs1,-3.65%
25,CC(C)C[C@H](NC(=O)OCc1ccccc1)C(=O)NC1(C#N)CCN(C2CC2)CC1,-3.48%
26,COc1ccc(OC)c(C2C(C#N)=C(N)Oc3c2c(C)nn3-c2cccc(Cl)c2)c1 (centres unmarked),1.01%

row,Structure (SMILES),% Inhibition @ 10 uM
1,O=C1c2cccnc2C(=O)N1Cc1ccc(S(=O)(=O)N2CCCN(Cc3ccc(F)cc3)C2)cc1,-6.49%
2,COc1ccc(S(=O)(=O)N2CCN(Cc3ccc4c(c3)OCO4)CC2)c(Cl)c1Cl,2.95%
3,Cc1[nH]c2ccccc2c1CCNC(=S)NC1CCCCC1,-5.79%
4,C=CCNc1nc(-c2ccncc2)cs1,-8.19%
5,OC1CCN(Cc2cccc(F)c2)CC1,-1.93%
6,COCCCNC(=O)CCSc1ccc(C)cc1,22.8%
7,CCCc1cc(=O)oc2cc(O)ccc12,-0.744%
8,CCOc1ccc(NC(=O)c2ccc(C(=O)O)cc2C(=O)O)cc1,4.08%
9,CCCn1c(=O)c2sccc2n2c(CCCC(=O)NCc3cccnc3)nnc12,5.22%
10,CC12CN3CC(C)(CN(C1)C3c1cc(Br)ccc1O)C2 (centres unmarked),2.6%
11,Cc1cc(C)n(-c2cc(O)c(-n3nc(C)cc3C)cc2O)n1,-5.63%
12,COc1cccc(OC)c1C(=O)Nc1nnc(C2CCCCC2)s1,0.222%
13,CC(/N=c1/c(-c2ccc(Cl)cc2)c(O)c1=O)c1ccc2c(c1)OCCO2 (centres unmarked),0.967%
14,O=C(NCCc1ccc(Cl)cc1)C1C2C=CC3(CN(Cc4ccccc4Cl)C(=O)C13)O2 (centres unmarked),6.2%
15,COc1ccc(CN2C(=O)c3cccnc3C2=O)cc1S(=O)(=O)NCc1ccc2c(c1)OCO2,-4.02%
16,O=C(Nc1ccc2[nH]ncc2c1)/C(=C/c1ccccc1)NC(=O)c1ccccc1,-0.996%
17,CCOc1cccc(C2C(C(=O)c3ccc(C)o3)=C(O)C(=O)N2Cc2ccccc2)c1 (centres unmarked),-5.26%
18,CN1CCN(S(=O)(=O)c2ccc3ncc(C(=O)O)c(O)c3c2)CC1,-0.657%
19,Cc1noc2ncnc(NCCc3ccsc3)c12,-2.71%
20,Cc1ccc(S(=O)(=O)N=C(N)N)cc1,3.96%
21,Cc1ccccc1CNC(=O)C(C)SCc1ccccc1 (centres unmarked),1.35%
22,CCOC(=O)C(C(=O)Nc1cccc2ccccc12)C1CCCCC1 (centres unmarked),2.51%
23,Oc1nnc(C(F)(F)F)c2nnn(Cc3ccccc3Cl)c12,0.401%
24,O=[N+]([O-])c1ccc(OCCCN2CCCCC2)cc1,-7.28%
25,Cc1cc(C)c2c(=O)n(CC(=O)NCCC3=CCCCC3)sc2n1,-10.5%
26,CCc1cc(CC(NC(=O)c2ccc(N3CCOCC3)cc2)C(=O)NCC#N)cc(I)c1O (centres unmarked),0.173%

row,Structure (SMILES),% Inhibition @ 10 uM
1,CCCC(=O)OCCNC(=O)c1cc2ccccc2oc1=O,2.62%
2,CC(=O)c1cc2c(cc1NC(=O)c1ccc(C)c(C)c1)OCO2,5.92%
3,COc1ccccc1CNC(=O)C(C)n1nc(C)c2c(C)n(-c3ccc(C)cc3)nc2c1=O (centres unmarked),-8.17%
4,COc1cc(NC(=O)c2ccc(Cl)cc2)c(Cl)cc1NC(=O)c1cccs1,5.84%
5,CCOC(=O)c1sc2nc(C3CC3)cc(-c3ccc(OC)cc3)c2c1N,-2.2%
6,CCOc1ccccc1C(=O)N(Cc1ccc(CC)cc1)Cc1ccco1,2.29%
7,Cc1ccc(N2C(=O)NC(c3ccc(F)cc3)(C(F)(F)F)C2=O)nc1 (centres unmarked),0.895%
8,N#CC1=C(N)Oc2ncnc(O)c2C1c1ccncc1 (centres unmarked),1.76%
9,NC(=O)CSc1nnc(CSc2ncccn2)n1CCc1ccccc1,1.66%
10,CC1=NOC(=O)/C1=C\c1ccc(-c2ccccc2Br)o1,3.12%
11,CC1CC(Nc2ccccc2)c2ccccc2N1C(=O)c1ccc(Cl)cc1 (centres unmarked),4.26%
12,CCOc1ccc(C(=O)Nc2nc(-c3ccccc3)cs2)cc1Cl,18.2%
13,O=S1(=O)CCC=C1S(=O)(=O)c1ccccc1,1.21%
14,O=C(Nc1ccccc1C(=O)O)c1ccc2c(c1)C(=O)N(Cc1ccco1)C2=O,11.5%
15,COc1ccccc1C(=O)/N=C(\N)Nc1nc2ccccc2o1,-3.02%
16,Nc1cc2cc3c(cc2oc1=O)OCCO3,-2.77%
17,Cn1cc(S(=O)(=O)N2CCCC2)cc1C(=O)NCc1ccccc1Cl,1.39%
18,O=C(Cc1ccc([N+](=O)[O-])cc1)NCCO,4.08%
19,CCn1cc(C=C2C(=O)OC(C)(C(C)(C)C)OC2=O)c2ccccc21 (centres unmarked),3.16%
20,CN(C)/C=C1\CC(=O)N(Cc2ccccc2)C1=O,1.42%
21,O=C(NCCc1ccccc1)C(=O)Nc1ccc(Cl)cc1,-0.414%
22,CCOC(=O)CN(C(=O)c1ccccc1)c1ccccc1C,4.57%
23,COCC(=O)n1nc(-c2ccc(Cl)cc2)nc1NCc1ccc(F)cc1,-2.91%
24,COC(=O)c1ccc2[nH]c3c(c2c1)CN(C)CC3,1.72%
25,Cc1ccc(C(=O)Nc2ccc(CC#N)cc2)cc1,1.57%
26,O=S(=O)(O)CCC[n+]1c(/C=C/c2ccc3c(c2)OCO3)sc2ccccc21,2.25%

row,Structure (SMILES),% Inhibition @ 10 uM
1,OC1=C2C(=Nc3ccccc3NC2c2ccco2)CC(c2ccccc2)C1 (centres unmarked),-2.78%
2,Fc1ccc(CN2CCN(c3ccccn3)CC2)cc1Br,3.1%
3,COc1ccccc1N1C(=O)CC(N(CCC23CC4CC(CC(C4)C2)C3)C(C)=O)C1=O (centres unmarked),0.231%
4,O=C(Cn1nc(-c2ccccc2)ccc1=O)NCCc1ccc(Cl)cc1,-2.99%
5,COc1cc(CN2CCN(Cc3cccc(F)c3)CC2)cc(OC)c1OC,-10.6%
6,O=C1NC(=O)C(O)(c2c[nH]c3ccccc23)C(=O)N1,-0.186%
7,CCCCCCOc1ccc(N2C(=O)CC(N3CCN(C)CC3)C2=O)cc1 (centres unmarked),2.44%
8,Cc1ccc2nc3c(O)n(CCCN(C)C4CCCCC4)cnc-3c2c1,4.8%
9,O=C(NCc1ccc2c(c1)OCO2)c1cccc2c1C(=O)N(C1CCCCC1)C2,-4.69%
10,CCCCCCNC(=O)C1C2C=CC(O2)C1C(=O)O (centres unmarked),-2.54%
11,COc1ccc(C(CC(=O)O)NC(=O)C(C)C)cc1 (centres unmarked),17.5%
12,COc1cccc(C=C2C(=O)c3ccccc3C2=O)c1OC,-6.11%
13,O=C(CC1COC(=O)C(=O)N1Cc1ccccc1)NCc1ccccc1 (centres unmarked),-1.68%
14,O=C(Cc1ccccc1)Nc1ccccc1C(=O)NC12CC3CC(CC(C3)C1)C2,-2.03%
15,O=C(O)CCC(=O)Nc1ccc(N2CCN(c3cccc(Cl)c3)CC2)cc1,-0.318%
16,CCc1ccccc1OCCOCCN1CCN(C)CC1,-0.0619%
17,CC(C)=CCN1CCN(C/C=C/c2ccccc2)CC1,-3.27%
18,NCCc1c[nH]c2c(Cl)ccc(Cl)c12,-1.98%
19,COc1ccc2nc(NC(=O)c3cc4c(s3)-c3ccccc3OC4)sc2c1,-6.68%
20,O=C(c1cc(-c2ccccc2)[nH]n1)N1CCC2(CC1)OCCO2,3.75%
21,Cc1nc2cc(-c3ccccc3)nn2c(C)c1CC(=O)NCc1cccc(Cl)c1,-2.45%
22,CCc1ccc(CN2CCN(C(=O)c3ccc(OC)cc3)CC2)cc1,-1.24%
23,c1ccc(-c2noc(-c3ccccn3)n2)cc1,1.94%
24,COc1c(Cl)cc(Cl)cc1C(=O)NC1CCCCC1,-2.18%
25,COc1cccc(S(=O)(=O)NCc2ccc(C(=O)NCc3ccco3)cc2)c1,-4.63%
26,CC(NC(=S)NC(=O)/C=C/c1ccco1)C12CC3CC(CC(C3)C1)C2 (centres unmarked),-3.16%
